About 14,000 (4.5%) of roughly 310,000 compounds showed an effect of 50% or more. Effects have a minus sign here. The list shows a part of the results.
Each compound was assayed against human ether-à-go-go-related gene (hERG) potassium channel (human, UniProt Q12809) (assay: primary screen, population patch clamp on CHO cells stably expressing hERG).
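Note: peak tail current of the secondary pulse compared with the same well before compound.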

Sequence of human ether-à-go-go-related gene (hERG) potassium channel (Q12809 whole entry, looked up): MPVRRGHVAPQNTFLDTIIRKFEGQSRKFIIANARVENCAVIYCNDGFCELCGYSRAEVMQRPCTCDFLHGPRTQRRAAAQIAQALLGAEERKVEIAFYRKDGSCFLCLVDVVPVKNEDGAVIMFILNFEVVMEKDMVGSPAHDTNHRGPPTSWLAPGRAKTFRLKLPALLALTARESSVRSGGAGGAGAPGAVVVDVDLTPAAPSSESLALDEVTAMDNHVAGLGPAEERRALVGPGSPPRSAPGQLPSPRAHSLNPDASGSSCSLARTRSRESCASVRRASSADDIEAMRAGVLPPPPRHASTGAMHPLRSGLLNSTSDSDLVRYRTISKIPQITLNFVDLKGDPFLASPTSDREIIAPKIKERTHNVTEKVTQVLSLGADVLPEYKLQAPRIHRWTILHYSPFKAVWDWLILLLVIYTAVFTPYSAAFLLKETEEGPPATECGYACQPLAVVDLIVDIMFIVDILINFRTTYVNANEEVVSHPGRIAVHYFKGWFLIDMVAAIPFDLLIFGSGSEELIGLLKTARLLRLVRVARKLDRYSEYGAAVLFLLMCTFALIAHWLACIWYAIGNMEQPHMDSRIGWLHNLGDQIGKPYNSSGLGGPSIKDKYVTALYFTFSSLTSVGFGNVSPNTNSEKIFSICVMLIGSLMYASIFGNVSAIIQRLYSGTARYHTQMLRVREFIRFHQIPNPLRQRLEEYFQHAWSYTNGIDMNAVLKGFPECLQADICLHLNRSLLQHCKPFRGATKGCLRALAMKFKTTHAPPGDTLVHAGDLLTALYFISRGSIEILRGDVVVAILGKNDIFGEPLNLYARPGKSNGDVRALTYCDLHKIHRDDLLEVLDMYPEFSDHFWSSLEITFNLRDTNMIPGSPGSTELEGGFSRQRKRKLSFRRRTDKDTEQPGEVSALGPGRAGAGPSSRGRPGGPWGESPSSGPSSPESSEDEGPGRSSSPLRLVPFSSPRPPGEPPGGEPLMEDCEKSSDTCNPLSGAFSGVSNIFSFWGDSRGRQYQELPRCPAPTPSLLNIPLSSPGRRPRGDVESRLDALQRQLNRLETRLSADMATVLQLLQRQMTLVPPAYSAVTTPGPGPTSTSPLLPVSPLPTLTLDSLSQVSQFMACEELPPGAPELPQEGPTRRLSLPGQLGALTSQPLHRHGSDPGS

| SMILES | hERG current change (%, negative = inhibition) at 10uM [%] |
| --- | --- |
| NC1=NC(=O)/C(=C/c2cc(Br)c(O)c(Br)c2)S1 | 16.8 |
| CC(C)(C)NC(=O)C(c1ccccc1)N(C(=O)c1csnn1)C1CC1 (stereo not shown) | 0.809 |
| CCN(CC)C(=O)c1ccc(-c2nnc(Nc3ccc(C(=O)N(C)C)cc3)c3ccccc23)cc1 | 0.298 |
| O=C(O)CCCC(=O)Nc1ccccc1Br | 13.3 |
| CCCCOCCCNC(=O)CC(C)c1ccccc1 (stereo not shown) | 10.1 |
| Cc1c(C=O)c2ccccc2n1CC(=O)NCc1ccccc1 | 23.1 |
| CCOC(=O)CSc1nnc(CNC(=O)c2cccs2)n1-c1cccc(C)c1 | -11.7 |
| COc1ccc(OCCC(=O)N2CCN(C)CC2)cc1.Cl | 17.3 |
| O=C(COc1ccccc1)Nc1nccs1 | -13.5 |
| O=C(OCC(=O)N1CCOCC1)c1ccccc1Br | 20.8 |
| CCOC(=O)C1CCCN(C(=O)Cc2c(F)cccc2Cl)C1 (stereo not shown) | 4.12 |
| CCC(=O)C1CCCN(C(=O)c2ccc(OC3CCN(C(=O)c4cccnc4)CC3)cc2)C1 (stereo not shown) | 13.8 |
| C=CCn1c(CC(C)(C)C)nc2ccccc21 | 5.31 |
| O=C(COC(=O)c1ccco1)NC(c1ccccc1)c1ccccc1 | 3.56 |
| Clc1ccc(Cl)c(OCCCCNCc2ccccc2)c1.O=C(O)C(=O)O | -71.5 |
| CCCCn1nc(C(=O)NNC(=O)c2ccncc2)c2ccccc2c1=O | -15 |
| O=CNCCCc1nc2ccccc2n1Cc1cccc2ccccc12 | -43 |
| O=C(NC1(Cc2ccccc2)CCN(Cc2ccc(-c3ccccc3)cc2)C1=O)c1ccccc1 (stereo not shown) | 11 |
| CCC(C(=O)OC)n1cnc2c(nnn2-c2cccc(OC)c2)c1=O (stereo not shown) | 2.24 |
| COc1ccc(Cl)cc1NC(=S)NCc1ccccn1 | 9 |
| CCCc1ccc(OCCNC(=O)CC)cc1 | -10.9 |
| CC(C)c1csc(CN2CCN(Cc3ccc(F)c(F)c3)C(CCO)C2)n1 (stereo not shown) | -19.3 |

| SMILES | hERG current change (%, negative = inhibition) at 10uM [%] |
| --- | --- |
| Cc1[nH]n(-c2ccccc2)c(=O)c1/C=N/NC(=O)c1cccc(F)c1 | 20.1 |
| COc1ccc(Br)cc1C(=O)N/N=C/c1ccc([N+](=O)[O-])cc1 | 3 |
| COc1cccc(C2/C(=C(/O)c3ccc4c(c3)CC(C)O4)C(=O)C(=O)N2c2nnc(C)s2)c1 (stereo not shown) | 17 |
| CCOc1ccc(CN2CCCC(C(=O)c3ccccc3OC)C2)cc1 (stereo not shown) | -82 |
| Cn1c(CSCc2ccccc2)nnc1SCC(=O)Nc1nccs1 | -16.1 |
| CCC/C=C(\CCC)C(NC(=O)OCC(C)C)c1ccc(C(=O)OC)cc1 (stereo not shown) | 7.89 |
| O=C(C1=C[C@@H](c2coc3ccccc3c2=O)C[C@@H](OCc2ccc(CO)cc2)O1)N1CCOCC1 | -24.7 |
| COc1cccc(/C=N/NC(N)=S)c1OCc1ccccc1Cl | 7.81 |
| NC(=O)N/N=C/c1ccccc1OCC(=O)NCc1ccccc1 | -3.76 |
| O=C(O)CCn1c(=O)[nH]c2ccccc2c1=O | 12.4 |
| COc1ccc(Br)cc1CN(C)C(=O)c1ccccc1OCc1c(C)noc1C | -28.7 |
| O=C(Nc1ccc(OC(F)F)cc1)c1ccccn1 | 6.62 |
| CCOc1ccccc1CN1CCNC(=O)C1CC(=O)NCc1ccccn1 (stereo not shown) | -42.3 |
| CC(=O)Nc1ccc(/C=C/c2nc3ccccc3[nH]c2=O)cc1 | 13 |
| CCn1c(=O)cc(SCC(=O)N2CCN(c3ccccc3F)CC2)c2ccccc21 | -21.7 |
| O=C(Nc1ccccc1O)c1ccc2c(c1)C(=O)N(c1ccccc1)C2=O | 9.77 |
| Cc1ccc(C(=O)OCC(=O)Nc2sccc2C(N)=O)cc1NC(=O)c1ccco1 | 14.8 |
| NC(=O)c1ccsc1NC(=O)c1ccc(S(=O)(=O)N2CCCC2)cc1 | -7.59 |
| CC1CN(C(=O)C(Sc2ccccc2)c2ccccc2)CC(C)O1 (stereo not shown) | -15.4 |
| CCOc1ccc(N2C(=O)CCC2=O)cc1 | 10.8 |
| C=CCn1c(O)c(C(C)=NCCCN2CCOCC2)c(=O)[nH]c1=O | 3.33 |
| CSc1ccc(CN2CCN(C(=O)CC(C)C)CC2)cc1 | 9.42 |

| SMILES | hERG current change (%, negative = inhibition) at 10uM [%] |
| --- | --- |
| O=C(CSc1nnnn1-c1ccccc1)c1ccco1 | -18.8 |
| CCOC(=O)N1CCC(NC(=O)CSCc2cnn(-c3ccccc3)c2-n2cccc2)CC1 | -16.6 |
| COc1cccc(C2c3c(-c4cc(Cl)c(C)cc4O)n[nH]c3C(=O)N2Cc2cccnc2)c1 (stereo not shown) | -0.616 |
| COC(=O)c1cn(CC(=O)Nc2ccccc2C)c2ccccc12 | 22.5 |
| CSc1cccc(NC(=O)C2C3C=CC4(O3)C2C(=O)N(CCN2CCOCC2)C4C(=O)NC2CCCCC2)c1 (stereo not shown) | 9.21 |
| COc1ccc(-c2c(-c3cc(OC)cc(OC)c3)n(C)c3ccc(-c4ccc(SC)cc4)cc23)cc1 | 18.7 |
| NC(=O)COc1ccc(/C=N\NC(=O)c2ccc(-c3ccccc3)cc2)cc1 | 6.9 |
| CCN(CC)C(=O)Cn1c(=O)n(Cc2ccc(F)cc2)c(=O)c2sccc21 | 12 |
| COc1cc(C(c2sc3nc(C)nn3c2O)N2CC(C)OC(C)C2)cc(OC)c1OC (stereo not shown) | 7.58 |
| CCn1ncc(Cl)c1C(=O)Nc1ccncc1 | -5.7 |
| Cc1noc(C)c1COc1ccc(C(=O)OCC(=O)N2CC3(C)CC2CC(C)(C)C3)cc1 (stereo not shown) | -6.44 |
| Cc1ccc(C(C(=O)NC(C)(C)C)N(Cc2ccc3c(c2)OCO3)C(=O)c2ccc(CN3CCOCC3)o2)o1 (stereo not shown) | -0.88 |
| CN(CC(=O)Nc1ccc(Cl)c(C(F)(F)F)c1)C(=O)Cc1c[nH]c2ccccc12 | 2.59 |
| COc1cccc(-n2nnc3c(=O)n(CC(=O)Nc4ccc(C)cc4)cnc32)c1 | 6.39 |
| COc1ccc(NS(=O)(=O)c2cc(NC(=O)c3cccs3)ccc2N2CCOCC2)cc1 | -4.22 |
| Cc1nn(-c2cccc3cccnc23)c(=O)c2ccccc12 | 17.8 |
| COc1cc(C(=O)Oc2ccccc2/C=N/NC(=O)c2ccc(C)cc2)cc(OC)c1OC | 20.7 |
| NC(=O)CC[C@H](NC(=O)c1ccc(F)cc1)C(=O)OCC(=O)NCc1ccc(F)cc1 | 19.4 |
| CCC1CCCCN1CCCNC(=O)Cn1cnc2sc(C)c(S(=O)(=O)N3CC(C)CC(C)C3)c2c1=O (stereo not shown) | 4.72 |
| COc1ccccc1C(=O)NNS(=O)(=O)c1ccc(F)cc1 | 8.47 |
| CCn1c(SCC(=O)c2cc(C)n(CC3CCCO3)c2C)nc2ccccc21 (stereo not shown) | -11.6 |
| Cc1cc(C)n2nc(C(=O)OC(C)C(=O)c3ccccc3)nc2n1 (stereo not shown) | 17.9 |

| SMILES | hERG current change (%, negative = inhibition) at 10uM [%] |
| --- | --- |
| CCCCc1cc(=O)oc2cc(C)cc(OCC(=O)N3C[C@H]4C[C@@H](C3)c3cccc(=O)n3C4)c12 | -46.9 |
| CC(C)Sc1nc2c(c(=O)n(C)c(=O)n2C)n1Cc1ccc(Cl)cc1 | -2.96 |
| COc1ccc(Cl)cc1Nc1nc(NCCO)nc(N2CCCCC2)n1 | -3.45 |
| Nc1nnc(-c2cccc([N+](=O)[O-])c2)s1 | -0.408 |
| CCOC(=O)Cc1csc(NS(=O)(=O)c2ccc(F)cc2)n1 | 7.33 |
| COc1ccc2c(c1)C(SCC(=O)NCCc1ccc(Cl)cc1)CC(C)(C)O2 (stereo not shown) | -8.41 |
| CC1=CC(C)(C)NC(=S)N1C(C)c1ccccc1 (stereo not shown) | 22.7 |
| O=C(c1ccccc1)c1nn(-c2cccc(Cl)c2)ccc1=O | 1.55 |
| Cc1ccc(S(=O)(=O)NCC(c2cccnc2)N2CCc3ccccc32)cc1 (stereo not shown) | -2.1 |
| COc1cccc(NC(=O)CN(c2ccccc2OC)S(=O)(=O)c2cccs2)c1 | 2.3 |
| COc1ccc(NC(=O)NNC(=O)COc2ccc([N+](=O)[O-])c(C)c2)cc1OC | 10.1 |
| O=c1cc(CN2CCN(S(=O)(=O)/C=C/c3ccccc3)CC2)c2ccc(O)cc2o1 | -76.8 |
| COc1cccc(C(=O)Nc2ccccc2C(=O)NCC2CCCO2)c1 (stereo not shown) | -14.3 |
| O=C(CCc1nnc2ccc(NCc3ccccc3)nn12)NC1CCCC1 | 11.1 |
| CCOC(=O)c1cnc(SC)nc1Oc1cccc(NS(=O)(=O)c2ccc(Cl)cc2)c1 | -14.7 |
| CC(C)(C)c1ccc(C(=O)N/C(=C\c2cccs2)C(=O)N2CCOCC2)cc1 | -7.22 |
| CC(=O)c1c(N(C)C)ccnc1C(F)(F)F | 7.93 |
| COc1ccccc1NC(=S)N(C(C)C)C(C)c1ccccn1 (stereo not shown) | -9.06 |
| CCNC(=O)CCC(=O)Nc1cc(Cl)ccc1C | 18 |
| COc1ccc(N)cc1NC(=O)CN1CCCC1 | 19.3 |
| CCN(CC)c1c(-c2ccccc2)c2cc(C)ccc2[nH]c1=O | 2.12 |
| COc1cc(CN2CCN(C(=O)COc3ccccc3)CC2)cc(OC)c1OC | -14.1 |
